# Lines with a small IC50 respond at low doses; a fit beyond the top or the lowest dose is shown as a bound at that dose. AUC is the area under the same curve over the 256-fold range up to the top dose, as a fraction; the more sensitive the line, the further below 1. For some assays here: An inferred top dose is not printed in the source and was worked back from the curve model. For some assays here: An entry number marks a drug with two screens in the source, which often give different values.
# How the values were obtained:
# Assay in all cases: Viability of human cancer cell lines after 72 h of drug (GDSC screen)
# Bleomycin = compound: Cc1c(N)nc([C@H](CC(N)=O)NC[C@H](N)C(N)=O)nc1C(=O)N[C@H](C(=O)N[C@H](C)[C@@H](O)[C@H](C)C(=O)N[C@H](C(=O)NCCc1nc(-c2nc(C(=O)NCCC[S+](C)C)cs2)cs1)[C@@H](C)O)[C@@H](OC1OC(CO)C(O)C(O)C1OC1OC(CO)C(O)C(OC(N)=O)C1O)c1cnc[nH]1 [Bleomycin]
# Protocol: (§1)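 Human cancer cell lines in 384-well plates, medium with 10% serum, drug for 72 h over a 256-fold dose range (nine 2-fold or five 4-fold steps up to the top dose). Adherent lines were fixed and stained with the nucleic acid dye Syto60, suspension lines read with resazurin; signal relative to control wells, capped at 0 and 100%. One two-parameter sigmoid per drug and line, fitted in a mixed model over all curves with the slope shared within a line.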
# VNLG/124 = compound: CCCC(=O)OCc1ccc(OC(=O)/C=C(C)/C=C/C=C(C)/C=C/C2=C(C)CCCC2(C)C)cc1 [VNLG/124]; conditions: top dose 5.12 µM; top dose inferred
# Protocol: as §1
# LAQ824 = compound: O=C(/C=C/c1ccc(CN(CCO)CCc2c[nH]c3ccccc23)cc1)NO [LAQ824]; conditions: top dose 1.024 µM; top dose inferred
# Protocol: as §1
# HG-5-88-01 = compound: COc1cc(N2CCC(C(N)=O)CC2)ccc1Nc1nc(N)c(Cl)c(Nc2ccccc2S(=O)(=O)C(C)C)n1 [HG-5-88-01]; conditions: top dose 10 µM; top dose inferred
# Protocol: as §1
# BX-912 = compound: O=C(Nc1cccc(Nc2ncc(Br)c(NCCc3cnc[nH]3)n2)c1)N1CCCC1 [BX-912]; conditions: top dose 10.24 µM; top dose inferred
# Protocol: as §1
# Masitinib = compound: Cc1ccc(NC(=O)c2ccc(CN3CCN(C)CC3)cc2)cc1Nc1nc(-c2cccnc2)cs1 [Masitinib]; conditions: top dose 20 µM
# Protocol: as §1
# OSI-930 = compound: O=C(Nc1ccc(OC(F)(F)F)cc1)c1sccc1NCc1ccnc2ccccc12 [OSI-930]; conditions: top dose 10.24 µM
# Protocol: as §1
# NSC-87877 = compound: O=S(=O)(O)c1ccc2cc(N=Nc3cc(S(=O)(=O)O)c4cccnc4c3O)ccc2c1 [NSC-87877]; conditions: top dose 16 µM; top dose inferred
# Protocol: as §1
# Elesclomol = compound: CN(NC(=O)CC(=O)NN(C)C(=S)c1ccccc1)C(=S)c1ccccc1 [Elesclomol]; conditions: top dose 0.2 µM; top dose inferred
# Protocol: as §1
# Tamoxifen = compound: CC/C(=C(\c1ccccc1)c1ccc(OCCN(C)C)cc1)c1ccccc1 [Tamoxifen]; conditions: top dose 5 µM
# Protocol: as §1
# [1] = top dose 50 µM, screen: GDSC drug entry 1378, top dose inferred
# [2] = top dose 64 µM, screen: GDSC drug entry 190
Cell Line,AUC (Bleomycin; [1]),IC50 (Bleomycin; [1]) [µM],AUC (Bleomycin; [2]),IC50 (Bleomycin; [2]) [µM],AUC (VNLG/124),IC50 (VNLG/124) [µM],AUC (LAQ824),IC50 (LAQ824) [µM],AUC (HG-5-88-01),IC50 (HG-5-88-01) [µM],AUC (BX-912),IC50 (BX-912) [µM],AUC (Masitinib),IC50 (Masitinib) [µM],AUC (OSI-930),IC50 (OSI-930) [µM],AUC (NSC-87877),IC50 (NSC-87877) [µM],AUC (Elesclomol),IC50 (Elesclomol) [µM],AUC (Tamoxifen),IC50 (Tamoxifen) [µM]
"NCI-SNU-16 (stomach, suspension)",0.91,> 50,0.991,> 64,0.99,> 5.12,0.773,0.353,0.93,> 10,0.944,> 10.2,0.979,> 20,0.988,> 10.2,0.979,> 16,0.977,> 0.2,0.947,> 5
"RERF-LC-KJ (lung adenocarcinoma, adherent)",0.547,4.2,0.734,19,0.983,> 5.12,0.83,0.668,0.974,> 10,0.935,> 10.2,0.966,> 20,0.978,> 10.2,0.987,> 16,0.474,0.0106,0.977,> 5
"OS-RC-2 (kidney, adherent)",0.561,4.95,0.479,3.42,0.978,> 5.12,0.415,0.0338,0.863,> 10,0.926,> 10.2,0.86,> 20,0.975,> 10.2,0.977,> 16,0.669,0.0458,0.974,> 5
"M059J (glioma, adherent)",0.496,3.04,0.535,5.02,0.984,> 5.12,0.499,0.0637,0.947,> 10,0.869,> 10.2,0.929,> 20,0.983,> 10.2,0.853,14.1,0.566,0.0193,0.984,> 5
"K2 (melanoma, adherent)",0.734,18.1,0.639,10.9,0.971,> 5.12,0.624,0.156,0.92,> 10,0.982,> 10.2,0.949,> 20,0.979,> 10.2,0.982,> 16,0.656,0.0386,0.976,> 5
"VCaP (prostate, adherent)",0.958,> 50,0.928,> 64,0.965,> 5.12,0.371,0.0278,0.862,9.11,0.875,> 10.2,0.915,> 20,0.951,> 10.2,0.972,> 16,0.627,0.0284,0.986,> 5
"SK-MEL-1 (melanoma, suspension)",0.965,> 50,0.971,> 64,0.992,> 5.12,0.824,0.504,0.993,> 10,0.975,> 10.2,0.931,> 20,0.991,> 10.2,0.983,> 16,0.992,> 0.2,0.991,> 5
"SJSA-1 (bone, adherent)",0.616,6.81,0.428,2.48,0.973,> 5.12,0.484,0.0577,0.947,> 10,0.932,> 10.2,0.795,10.7,0.936,> 10.2,0.984,> 16,0.52,0.0143,0.978,> 5
"ONS-76 (medulloblastoma, adherent)",0.241,0.519,0.325,1.24,0.978,> 5.12,0.456,0.048,0.959,> 10,0.87,> 10.2,0.831,14,0.97,> 10.2,0.984,> 16,0.48,0.0109,0.982,> 5
"NCI-H1304 (small cell lung carcinoma, suspension)",0.719,13.8,0.533,4.94,0.985,> 5.12,0.539,0.0827,0.902,> 10,0.665,1.92,0.923,> 20,0.971,> 10.2,0.973,> 16,0.492,0.0118,0.974,> 5
"JURL-MK1 (chronic myeloid leukaemia, suspension)",0.955,> 50,0.348,1.52,0.976,> 5.12,0.417,0.0379,0.984,> 10,0.759,3.56,0.294,0.329,0.85,7.74,0.974,> 16,0.546,0.0167,0.956,> 5
"BT-483 (breast, adherent)",0.925,> 50,0.952,> 64,0.977,> 5.12,0.59,0.14,0.974,> 10,0.977,> 10.2,0.942,> 20,0.917,> 10.2,0.978,> 16,0.567,0.0224,0.974,> 5
"22RV1 (prostate, adherent)",0.859,> 50,0.577,6.84,0.969,> 5.12,0.326,0.0185,0.884,> 10,0.969,> 10.2,0.941,> 20,0.977,> 10.2,0.979,> 16,0.508,0.0132,0.958,> 5
"H2461 (mesothelioma, adherent)",0.571,5.14,0.224,0.496,0.97,> 5.12,0.487,0.0586,0.94,> 10,0.968,> 10.2,0.983,> 20,0.972,> 10.2,0.977,> 16,0.365,0.00482,0.977,> 5
"HUTU-80 (digestive system, adherent)",0.125,0.278,0.022,< 0.25,0.99,> 5.12,0.335,0.0244,0.985,> 10,0.344,0.257,0.885,15.3,0.925,> 10.2,0.991,> 16,0.02,< 0.000781,0.991,> 5
"G-401 (kidney, adherent)",0.099,< 0.195,0.471,3.3,0.947,> 5.12,0.338,0.0216,0.85,8.79,0.864,> 10.2,0.878,> 20,0.934,> 10.2,0.984,> 16,0.421,0.00742,0.979,> 5
"DMS-114 (small cell lung carcinoma, adherent)",0.371,1.3,0.589,7.28,0.983,> 5.12,0.821,0.715,0.944,> 10,0.892,> 10.2,0.906,> 20,0.972,> 10.2,0.985,> 16,0.483,0.0111,0.982,> 5
"MLMA (hairy cell leukaemia, semi-adherent)",0.753,16.9,0.274,0.908,0.986,> 5.12,0.371,0.0281,0.963,> 10,0.728,2.86,0.826,12.2,0.966,> 10.2,0.984,> 16,0.513,,0.982,> 5
"HuP-T3 (pancreas, adherent)",0.706,13.7,0.516,4.47,0.98,> 5.12,0.545,0.087,0.815,7.1,0.937,> 10.2,0.916,> 20,0.964,> 10.2,0.974,> 16,0.556,0.0184,0.977,> 5
"SNU-387 (liver, adherent)",0.694,11.9,0.33,1.25,0.984,> 5.12,0.499,0.0638,0.758,3.92,0.552,0.907,0.9,> 20,0.984,> 10.2,0.979,> 16,0.531,0.0154,0.982,> 5
"DMS-53 (small cell lung carcinoma, adherent)",0.845,40.1,0.916,> 64,0.983,> 5.12,0.766,0.403,0.981,> 10,0.988,> 10.2,0.959,> 20,0.925,> 10.2,0.988,> 16,0.98,> 0.2,0.983,> 5
"ES5 (Ewing sarcoma, adherent)",0.591,5.77,0.544,5.37,0.921,> 5.12,0.346,0.0223,0.664,1.92,0.442,0.435,0.766,8.45,0.803,5.97,0.975,> 16,0.489,0.0116,0.97,> 5
"FADU (head and neck, adherent)",0.702,11.3,0.484,3.63,0.981,> 5.12,0.62,0.135,0.972,> 10,0.944,> 10.2,0.957,> 20,0.976,> 10.2,0.982,> 16,0.312,0.0038,0.954,> 5
"CAS-1 (glioma, adherent)",0.865,> 50,0.819,55.2,0.979,> 5.12,0.688,0.264,0.974,> 10,0.8,7.21,0.924,> 20,0.942,> 10.2,0.975,> 16,0.819,0.173,0.95,> 5

# Reference: the supplement of paper PMC4967469
